According to the supplement of paper PMC3334620:
The full ranking holds about 33,000 sequences; the median of “E-score (-0.5 to 0.5)” is about -0.012, and the highest 2% start at about 0.27. The list shows a part of the results.

target: T1, Vhr1 (UniProt P40522); test: PBM E-score (8-mer binding enrichment) (E-score (-0.5 to 0.5)); higher = stronger / more preferred TF binding; most listed sequences are background and not binding sites; conditions: protein concentration: 200 nM; construct: GST-full length
T1 sequence: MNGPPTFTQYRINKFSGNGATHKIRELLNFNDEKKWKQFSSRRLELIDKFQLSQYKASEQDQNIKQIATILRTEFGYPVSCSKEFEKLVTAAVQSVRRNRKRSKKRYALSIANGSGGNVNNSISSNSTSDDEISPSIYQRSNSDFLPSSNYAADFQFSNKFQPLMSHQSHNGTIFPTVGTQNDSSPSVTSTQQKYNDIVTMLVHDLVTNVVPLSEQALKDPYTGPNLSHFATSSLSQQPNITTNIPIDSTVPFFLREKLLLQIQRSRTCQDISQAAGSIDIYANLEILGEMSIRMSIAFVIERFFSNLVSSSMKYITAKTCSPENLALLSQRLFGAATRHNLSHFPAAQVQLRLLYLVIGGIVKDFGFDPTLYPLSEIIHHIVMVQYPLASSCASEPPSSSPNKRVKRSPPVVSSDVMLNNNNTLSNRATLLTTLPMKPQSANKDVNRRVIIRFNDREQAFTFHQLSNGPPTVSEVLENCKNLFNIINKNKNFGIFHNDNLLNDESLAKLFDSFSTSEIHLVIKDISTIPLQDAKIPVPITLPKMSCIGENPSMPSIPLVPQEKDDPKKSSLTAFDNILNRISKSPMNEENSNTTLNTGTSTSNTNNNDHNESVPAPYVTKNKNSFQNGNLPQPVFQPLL
How it was run: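 GST-tagged yeast TFs (full-length or DNA-binding domain) were made by PURExpress in vitro transcription/translation and applied at about 100-200 nM to universal all-10-mer Agilent arrays. The arrays were made double-stranded by primer extension, on fresh or once-stripped slides. Bound protein was detected with fluorescent anti-GST, and scans were normalised with masliner. Each ungapped eight-base word, pooled with its reverse complement, received an E-score (modified Wilcoxon-Mann-Whitney statistic) from the Universal PBM Analysis Suite.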

Sequence	PBM E-score
CAGAATCA	0.313
CTCGACCA	-0.204
CCATGCGC	0.0464
AATTGGAC	-0.0766
ACGCAGTC	0.169
GGCTACGA	0.0544
AGGACCCA	0.00758
CATCATCC	0.119
AATGTACA	0.0891
CCTAGTAA	0.0993
AAATAAAG	-0.0552
TCACTAAA	0.153
AGCACAGG	0.00375
CGACTAAA	0.0758
ATCACGAA	0.137
AGAACTGC	-0.0768
GACAGTTA	0.0217
AGATCACG	0.101
TCCGCGAA	0.102
AATTGTAG	-0.0816
CCGCGAAG	0.039
AAAAGCGG	-0.121

Sequence	PBM E-score
CGACGCCA	0.163
AGTGTCCA	0.0162
ACCTCGAT	0.146
AAGACAGG	-0.0702
GAGAGTCC	-0.0872
CTTTATGA	0.1
CACGTTTA	-0.108
CTCACCTA	0.103
GGTGTGCA	0.0446
GTGAACCA	0.152
TACTCCTA	0.123
CTAGTTCC	-0.0541
CTCCAAAC	0.182
CCGGTCCA	-0.167
AGCTTAGG	-0.0375
ACCTAGAC	0.0688
CAGGTCCG	-0.0013
AGTAGGTC	-0.0653
AGGTCCCA	-0.0161
CCAGGTGC	0.094
AGTAGGAA	0.0507
CGGGGGAA	-0.0131

Sequence	PBM E-score
ACAAGACA	0.182
ACCGATAC	0.109
AGGGGCAG	-0.163
AAAAGCAA	-0.172
ATCCCGAC	0.185
ATTGGTAG	0.0879
GCCGTAGA	-0.138
GGTAAGTA	-0.0331
ATGCGTTA	0.0237
CGTAGTAG	0.082
ATTTCGAG	-0.0958
ATACGGAG	0.127
AATAGCAA	-0.117
GAATCGCA	0.00272
CGTAGCGC	-0.129
GCTTCTTA	-0.116
ATCGTTAG	-0.0396
AATCGAGA	-0.00051
AACCTGCT	0.0419
CCGCGCTC	0.0972
CATTTACG	-0.0814
GGTCTTTA	-0.0868

Sequence	PBM E-score
ATGCGAAC	0.119
TGAAGCAA	-0.215
CCTGACTA	0.391
ATAATCTC	0.0508
ATGCCTAC	-0.15
GTTTGTCA	-0.0383
AGAATTAG	-0.166
CGAAGTTC	-0.16
AACCCGTG	-0.107
AACTTGCC	-0.177
TCTAAGCA	0.0117
AATAGTGG	-0.0759
AAAAATCT	-0.231
GCAACCGA	0.0373
GGATGTGA	0.0365
CGGTCGGC	-0.107
AGAGTTAA	-0.0988
GAACCCGC	-0.139
AACGAGGA	-0.00876
GGAATTCC	-0.279
